Our source for the relative growth values is the supplement of paper PMC9446081.

Molecules are shown by their SMILES. About 220 (0.56%) of roughly 39,000 compounds showed activity. This is one part of the list.
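Further: static incubation at 37 °C against the wild-type strain, values averaged over two biological replicates.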

The subject of the assay is Escherichia coli K-12 BW25113. The assay is described as follows: relative growth (OD600 normalised to plate interquartile mean) (fraction); higher = less growth inhibition, active = 0.2 or less. Particulars: 50 µM; LB; incubation time: overnight (16-24 h).
`COc1cc(C(=O)O)cc(OC)c1O`: the relative growth was inactive: 0.967. As for `C[C@@H]1CCCCO[C@H](CN(C)C(=O)CCCN(C)C)[C@H](C)CN([C@@H](C)CO)C(=O)c2cc(NC(=O)Nc3ccc(C(F)(F)F)cc3)ccc2O1`, the figure is inactive: 0.939. Regarding `C[C@@H]1CN([C@H](C)CO)C(=O)c2cc(NS(=O)(=O)c3ccccc3)ccc2O[C@H]1CN(C)C(=O)Nc1cccc2ccccc12`, the relative growth is inactive: 1.02. For the compound `C[C@H](CO)N1C[C@H](C)[C@H](CN(C)Cc2ccc(-c3ccccc3)cc2)Oc2c(NC(=O)C3CCOCC3)cccc2C1=O`, the relative growth is inactive: 1. `C[C@@H]1CN([C@@H](C)CO)C(=O)c2cc(Br)cnc2O[C@@H]1CN(C)S(C)(=O)=O`: the relative growth was inactive: 1.02. Then `COCCOC(=O)N1C(=O)[C@@]2(c3cc(C#CCC(C(=O)OC)C(=O)OC)ccc31)[C@H](C(=O)N1CCc3cc(OC)c(OC)cc3C1)[C@H]1C(=O)O[C@H](c3ccccc3)[C@H](c3ccccc3)N1[C@@H]2c1ccc(O)cc1`, with inactive: 1.03. Then `C[C@@H]1CN([C@@H](C)CO)S(=O)(=O)c2ccc(C#CC3CC3)cc2O[C@@H]1CN(C)C(=O)C1CCCCC1`, with inactive: 1.01. As to `O=C(N[C@H]1C=C[C@H](CC(=O)N2CCOCC2)O[C@H]1CO)c1ccc2c(c1)OCO2`, the relative growth is inactive: 1.01. As for `CC/C=C\C/C=C\C/C=C\C/C=C\C/C=C\C/C=C\CCC(=O)OCC`, the figure is inactive: 0.988; as for `C[C@@H]1CN([C@H](C)CO)C(=O)c2cc(NC(=O)Nc3ccc(C(F)(F)F)cc3)ccc2O[C@@H](C)CCCCO[C@@H]1CN(C)Cc1ccc(C(F)(F)F)cc1`, inactive: 1.03. As for `C[C@H]1CN([C@@H](C)CO)C(=O)c2cc(C#Cc3ccccc3F)cnc2O[C@@H]1CN(C)C(=O)Cc1ccncc1`, the figure is inactive: 0.991. Then `C[n+]1cccc(C(=O)NO)c1`, with inactive: 0.985; and `O=C(C[C@H]1CC[C@@H]2[C@H](COC[C@H](O)CN2S(=O)(=O)c2ccc(Cl)cc2)O1)N[C@H]1CCN(Cc2ccccc2)C1`, with inactive: 0.999; and `COCCOC(=O)N1C(=O)[C@@]2(c3cc(C#CCNC(N)=O)ccc31)[C@H](c1ccccc1OCCO)N1[C@H](c3ccccc3)[C@H](c3ccccc3)OC(=O)[C@H]1[C@@H]2C(=O)N1CCCCCCC1`, with inactive: 0.996. With `CN1CCN(Cc2ccc(NC(=O)Nc3ccc(Oc4cc(NC(=O)C5CC5)ncn4)cc3)cc2C(F)(F)F)CC1`, the relative growth is inactive: 0.903. As for `O=C(O)[C@H](O)Cc1ccccc1`, the figure is inactive: 0.999. As to `c1csc(-c2nc3ccc4ccccc4c3c3c2CCC3)c1`, the relative growth is inactive: 0.984. Then `C[C@@H]1CN([C@H](C)CO)C(=O)c2cc(NS(=O)(=O)c3cccs3)ccc2O[C@H]1CN(C)S(C)(=O)=O`, with inactive: 1.01. As for `C[C@H](CO)N1C[C@H](C)[C@@H](CN(C)S(=O)(=O)c2ccccc2)OCCCC[C@H](C)Oc2ccc(NC(=O)C3CCCCC3)cc2C1=O`, the relative growth is inactive: 1.03. Then `Cc1ccc(S(=O)(=O)N(C)C[C@@H]2Oc3ccc(NS(=O)(=O)c4cn(C)cn4)cc3CC(=O)N([C@@H](C)CO)C[C@@H]2C)cc1`, with inactive: 0.983; and `C[C@@H]1CN([C@H](C)CO)C(=O)c2cc(NS(=O)(=O)c3cccs3)ccc2O[C@@H](C)CCCCO[C@@H]1CN(C)S(=O)(=O)c1cn(C)cn1`, with inactive: 1. As for `COc1cccc(S(=O)(=O)N(C)C[C@@H]2Oc3c(NC(=O)Nc4cccc5ccccc45)cccc3C(=O)N([C@@H](C)CO)C[C@H]2C)c1`, the relative growth was inactive: 0.939. Consider `C=c1[nH]/c(=C/c2cccnc2)c(=O)o1`, for which the relative growth is inactive: 1.01. As for `COc1ccccc1CN(C)C[C@@H]1OCc2ccccc2-c2c(n(C)c3ccccc23)C(=O)N([C@@H](C)CO)C[C@H]1C`, the figure is inactive: 0.975; as for `C[C@@H]1CCCCO[C@H](CN(C)S(=O)(=O)c2ccccc2)[C@@H](C)CN([C@H](C)CO)C(=O)c2cc(NC(=O)CCCCCC(=O)Nc3ccccc3N)ccc2O1`, inactive: 1.02; as for `COc1ccc(NC(=O)N(C)C[C@H]2OCCCC[C@H](C)Oc3ccc(NC(=O)Nc4ccc(F)cc4)cc3C(=O)N([C@H](C)CO)C[C@@H]2C)cc1`, inactive: 1.03. In the case of `C[C@@H]1CN([C@H](C)CO)C(=O)c2cc(NS(=O)(=O)c3cn(C)cn3)ccc2O[C@@H](C)CCCCO[C@@H]1CN(C)S(=O)(=O)c1ccc(F)cc1`, the relative growth was inactive: 1. `C[C@@H]1CN([C@H](C)CO)C(=O)c2cccc(NS(=O)(=O)c3cn(C)cn3)c2O[C@@H]1CN(C)S(=O)(=O)c1cn(C)cn1`: the relative growth is inactive: 0.982.

Consider `C[C@@H]1CN([C@@H](C)CO)C(=O)c2cc(NS(=O)(=O)c3cccs3)ccc2O[C@@H](C)CCCCO[C@H]1CN(C)C(=O)CCC(F)(F)F`, for which the relative growth was inactive: 1.04. Then `COc1ccc(NC(=O)Nc2ccc3c(c2)C(=O)N([C@@H](C)CO)C[C@H](C)[C@H](CN(C)S(C)(=O)=O)O3)cc1`, with inactive: 0.991; and `C[C@H](CO)N1C[C@H](C)[C@H](CN(C)S(=O)(=O)c2cccs2)Oc2c(NC(=O)Nc3cccc4ccccc34)cccc2C1=O`, with inactive: 1.01. Then `Cc1ccc(S(=O)(=O)N(C)C[C@@H]2Oc3cc(C#Cc4ccccc4)ccc3S(=O)(=O)N([C@H](C)CO)C[C@H]2C)cc1`, with inactive: 1.04. Then `CCN(CC)S(=O)(=O)[C@H]1CCS(=O)(=O)C1`, with inactive: 0.989; and `C[C@@H]1CN([C@H](C)CO)C(=O)Cc2cc(NS(=O)(=O)c3ccc(F)cc3)ccc2O[C@@H]1CN(C)Cc1ccc(Oc2ccccc2)cc1`, with inactive: 0.986. Turning to `COc1ccc2c3c([nH]c2c1)[C@H](CO)N(C[C@]13CCN(CC1)CC1CCCC1)C(=O)Nc1cccc(c1)F`, the relative growth is inactive: 0.97. As for `CC(=O)N[C@H]1C(=O)Nc2ccc(F)cc21`, the figure is inactive: 1.02; as for `Cc1noc(C)c1NC(=O)Nc1ccc2c(c1)C(=O)N([C@H](C)CO)C[C@@H](C)[C@@H](CN(C)S(=O)(=O)c1cccs1)OCCCC[C@H](C)O2`, inactive: 1; as for `Cc1noc(C)c1NC(=O)N(C)C[C@@H]1Oc2c(NC(=O)C3CC3)cccc2C(=O)N([C@H](C)CO)C[C@@H]1C`, inactive: 0.955.
